Patent US7279325 (dated 2007)

Target: T1, His-tagged ERR3 LBD (wild type; residues 229 to 458 of the Estrogen-Related Receptor 3) (human (human and murine receptor are …, UniProt P62508 229-458)
T1 construct: Expressed in E. coli BL21(DE3); Forms a homodimer in the crystal, in gel filtration and in mass spectrometry; SwissProt O75454 is printed for hERR3; also called wt LBD; wt ERR3; not shown: hexahistidine tag from vector pET-15b
T1 sequence: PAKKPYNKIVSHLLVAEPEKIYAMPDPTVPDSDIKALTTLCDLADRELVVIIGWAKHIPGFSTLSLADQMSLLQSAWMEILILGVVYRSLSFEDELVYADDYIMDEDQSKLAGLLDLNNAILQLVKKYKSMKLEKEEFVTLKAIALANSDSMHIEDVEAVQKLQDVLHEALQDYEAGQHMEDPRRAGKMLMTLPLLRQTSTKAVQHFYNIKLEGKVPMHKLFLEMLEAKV
Experiment: native polyacrylamide gradient gel, proteins mixed 10 min on ice
Description: After purification the proteins were dialyzed in assay buffer (20 mM Tris.HCl pH 8.0, 200 mM NaCl), and concentrated. […] Protein complexes were resolved on native polyacrylamide gradient gels (8%-25%) using the Phast System (Pharmacia).
In vitro interaction assays with the RID (amino acids 617-764) of the coactivator SRC-1 has first been performed. […] Complexes were separated on native polyacrylamide gradient gels.

B1: GST (other)
chain: not shown
notes: also called glutathione S-transferase
  binding result: no binding
